From the supplement of paper PMC13380429

Columns and labels:
A549-ACE2 [1] = test: phospholipidosis EC50; higher = less potent phospholipidosis inducer; settings: 24 h
HepG2 [2] = test: relative viability EC50 (midpoint between 100% and the lowest measured viability); higher = less toxic; settings: 72 h
U2OS [3] = test: as above; settings: 72 h
Vero E6 [4] = test: as above; settings: 72 h
Caco-2 [5] = test: as above; settings: 72 h
HepG2 [6] = test: cell viability relative to DMSO; higher = less toxic; settings: 72 h
U2OS [7] = test: as above; settings: 72 h
Calu-3 [8] = test: as above; settings: 72 h
Vero E6 [9] = test: as above; settings: 72 h
Caco-2 [10] = test: as above; settings: 72 h
HepG2 [11] = test: drug sensitivity score (DSS) for viability; higher = more toxic; extreme values may be limits of the assay; settings: 72 h
U2OS [12] = test: as above; settings: 72 h
Calu-3 [13] = test: as above; settings: 72 h
Vero E6 [14] = test: as above; settings: 72 h
Caco-2 [15] = test: as above; settings: 72 h
A549-ACE2 [16] = test: drug-induced phospholipidosis relative to tamoxifen; higher = more phospholipidosis
[17] = system: A549-ACE2 infected with SARS-CoV-2; test: SARS-CoV-2 infection rate relative to DMSO; higher = more infection; settings: 24 h
[18] = system: A549-ACE2 infected with SARS-CoV-2; test: cell count relative to DMSO; higher = less toxic; settings: 24 h
[19] = system: A549-ACE2 infected with SARS-CoV-2; test: morphology score (similarity to uninfected cells); higher = more like uninfected cells; settings: 24 h

O=C1NC(=O)c2c1c(-c1ccccc1)cc1[nH]c3ccc(O)cc3c21
Settings | drug sensitivity score | phospholipidosis EC50 [nM] | relative viability EC50 [nM]
A549-ACE2 [1] | – | 8770 | –
Caco-2 [5] | – | – | 1910
Caco-2 [15] | 5.7 | – | –
Calu-3 [13] | 1.3 | – | –
HepG2 [2] | – | – | 1450
HepG2 [11] | 7.2 | – | –
U2OS [3] | – | – | 1770
U2OS [12] | 8.3 | – | –
Vero E6 [4] | – | – | 2240
Vero E6 [14] | 4.1 | – | –

Settings | SARS-CoV-2 infection rate, [17] [%] | cell count, [18] [%] | cell viability, Caco-2 [10] [%] | cell viability, Calu-3 [8] [%] | cell viability, HepG2 [6] [%] | cell viability, U2OS [7] [%] | cell viability, Vero E6 [9] [%] | morphology score, [19]
1 nM | – | – | 98.2 | 111 | 104 | 109 | 108 | –
10 nM | – | – | 104 | 103 | 110 | 100 | 103 | –
100 nM | – | – | 104 | 109 | 93.5 | 102 | 102 | –
0.1 µM | 95 | 109 | – | – | – | – | – | 0.39
0.3 µM | 96 | 110 | – | – | – | – | – | 0.41
1000 nM | – | – | 88.6 | 108 | 76.5 | 81.6 | 93.6 | –
1 µM | 92 | 99 | – | – | – | – | – | 0.36
3 µM | 88 | 92 | – | – | – | – | – | 0.29
10000 nM | – | – | 30.7 | 63.8 | 24.9 | 4.7 | 43.2 | –

drug-induced phospholipidosis [%], A549-ACE2 [16]
Settings | 0.3 µM | 0.833333 µM | 3.33333 µM | 6.66667 µM | 10 µM | 30 µM
24 h | -1.81 | 0.56 | 20.2 | 60.1 | 125 | 196
48 h | 0.48 | -0.71 | 11.9 | 43 | – | –
72 h | 1.16 | -0.0827 | 5.04 | 35.6 | – | –
